Results: US20260199499A1, “ANTI-PDL1 ANTIBODY-DRUG CONJUGATE AND USE” (SHANGHAI HENLIUS BIOTECH, INC., priority 2023, published 2026)

How the values were obtained:
[1] = system: human PDL1-positive cervical cancer LD1-0010-200614 PDX; test: Anti-tumor effect, LD1-0010-200614 PDX xenograft; assay type: in vivo, Balb/c nude mice; conditions: 10 mg/kg, once a week for three doses, day 35
Procedure: (§1) A human-derived PDL1-positive cervical cancer LD1-0010-200614 model was revived in Balb/c nude mice. Once the tumor had grown to 500-800 mm^3, the tumor tissue was surgically aseptically excised, and non-tumor tissues and necrotic tissues were removed. The tumor tissue was stripped and evenly cut into tissue blocks (about 25-35 mg) of about 3 mm×3 mm×3 mm in size, and then, which were inoculated subcutaneously on the right side of Balb/c nude mice. Once the average tumor volume of the mice for grouping reached 146.74 mm3, the mice were grouped randomly according to the size of the tumor volume, ensuring similar tumor volumes between groups. The day of grouping was defined as day 0. After the start of dosing, the body weight and tumor size of the mice were measured twice a week, and the mice were dosed once a week, for three doses. Clinical symptoms observed during the experiment were recorded. The tumor volume was calculated according to the following formula: tumor volume (mm3)=½×(a×b2) (wherein a represented the long diameter, and b represented the short diameter).

[2] = system: NCI-H441; test: Cell killing activity (CellTiter-Glo); assay type: cell-based; conditions: NCI-H441, 72 hours
[3] = system: human PDL1-positive esophageal squamous carcinoma LD1-0015-362448 PDX; test: Anti-tumor effect, LD1-0015-362448 PDX xenograft; assay type: in vivo, Balb/c nude mice; conditions: 10 mg/kg, once a week for three doses, day 45
[4] = system: human dendritic cells; assay type: cell-based; conditions: high concentrations (500 nM), 96 hours, IFN-γ
Procedure: (§2) Since some human immune cells such as antigen-presenting cells (macrophages, dendritic cells, etc.) express PDL1, the immunotoxicity of PDL1-targeted antibody-conjugated drugs is an inevitable problem. Human dendritic cells and macrophages, after induced differentiation, were digested and viable cells were counted using Vi-Cell XR cytometer. The cell suspension was adjusted to an appropriate concentration with a culture medium. 80 μl/well of the cell suspension was added to a cell culture plate, which was supplemented with 500 IU/mL of IFN-γ. The test drug was diluted with a gradient (5-fold dilutions). 20 μl of each of the diluted test articles was taken and added to the cell suspension in the cell culture plate, and the cell culture plate was placed in an incubator and cultured for 96 hours. 50 μl/well of a CellTiter-Glo solution (purchased from Promega) that had been thawed in advance and equilibrated to room temperature was added according to CellTiter-Glo operation instructions. The wells were mixed uniformly with a microwell plate shaker for 2 minutes and maintained at room temperature for 10 minutes. The […] signal was measured using Envision 2104 plate reader. SGN-PDL1V was used as one of the control molecules and was disclosed in U.S. Patent No. US 20210101982 A1.

[5] = system: human macrophages; assay type: cell-based; conditions: high concentrations (500 nM), 96 hours, IFN-γ
Procedure: as §2

[6] = system: human PDL1-positive head and neck squamous carcinoma LD1-2023-411020 PDX; test: Anti-tumor effect, LD1-2023-411020 PDX xenograft; assay type: in vivo, NCG mice; conditions: 10 mg/kg, once a week for three doses, day 28
[7] = system: human breast cancer MDA-MB-231 cells; test: Anti-tumor activity, subcutaneous MDA-MB-231 model; assay type: in vivo, NCG mouse; conditions: once a week for three doses, day 35
[8] = system: PDL1-positive cells NCI-H292; test: Affinity of anti-PDL1 antibody-drug conjugate for PDL1-positive cells (flow cytometry); assay type: binding
[9] = target: T1, rat PDL1 ECD (Rattus norvegicus, UniProt D4AE25); test: Cross-binding activity to PDL1 ECD (ELISA)
T1 construct: Extracellular domains (ECDs) of PDL1s derived from human, cynomolgus monkey, rat, and mouse
T1 sequence (D4AE25 19-239): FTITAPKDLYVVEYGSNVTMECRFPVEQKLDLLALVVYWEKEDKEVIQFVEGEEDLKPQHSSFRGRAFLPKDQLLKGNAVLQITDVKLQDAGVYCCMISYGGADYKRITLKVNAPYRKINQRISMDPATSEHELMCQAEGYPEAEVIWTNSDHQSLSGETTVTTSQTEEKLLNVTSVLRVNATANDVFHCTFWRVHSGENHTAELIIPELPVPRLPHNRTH

[10] = system: low-PDL1-expressing human pancreatic cancer BxPC3 cells; test: Anti-tumor activity, subcutaneous BxPC3 model; assay type: in vivo, NCG mouse; conditions: 8 mg/kg, once a week for three doses, day 35
[11] = system: PDL1-positive cells NCI-H292; test: Internalization into PDL1-positive cells (pHrodo labeling, flow cytometry); assay type: cell-based; conditions: for incubation time at which the proportion of internalization reached the peak: NCI-H292
[12] = system: human PDL1-positive colorectal cancer LD1-2013-362125 PDX; test: Anti-tumor effect, LD1-2013-362125 PDX xenograft; assay type: in vivo, NU/NU mice; conditions: 10 mg/kg, once a week for three doses, day 31
Procedure: as §1, with “colorectal” for “cervical”, “LD1-2013-362125” for “LD1-0010-200614”, “NU/NU” for “Balb/c nude”, “156.99” for “146.74”

[13] = system: PDL1-negative tumor MDA-MB-468 cells; test: Bystander effect assay (supernatant of PDL1-overexpressing HEK293 cells on MDA-MB-468 cells); assay type: cell-based; conditions: 96 hours
[14] = system: NCI-H292; test: Cell killing activity (CellTiter-Glo); assay type: cell-based; conditions: NCI-H292, 72 hours
[15] = system: human PDL1-positive liver cancer LD1-0011-200617 PDX; test: Anti-tumor effect, LD1-0011-200617 PDX xenograft; assay type: in vivo, NU/NU mice; conditions: once a week for three doses, day 21
[16] = system: BXPC-3; test: Cell killing activity (CellTiter-Glo); assay type: cell-based, human; conditions: BXPC-3, 72 hours
[17] = system: PDL1-positive cells NCI-H441; test: Affinity of anti-PDL1 antibody-drug conjugate for PDL1-positive cells (flow cytometry); assay type: binding
[18] = system: human non-small cell lung cancer LU6437 PDX; test: Anti-tumor effect, LU6437 PDX xenograft; assay type: in vivo, BALB/c nude mice; conditions: once a week for three doses, day 21
Procedure: A revived tumor tissue was harvested from HuPrime® lung cancer xenograft model LU6437 tumor-bearing mice and cut into tumor blocks with a diameter of 2-3 mm, which were inoculated subcutaneously at the right anterior scapula of BALB/c nude mice. […] The average volume was 253.70 mm^3 in the actual groups. The day of grouping was defined as day 0. After the start of dosing, the mice were dosed once a week, for three doses, and the body weight and tumor size of the mice were measured twice a week. Clinical symptoms observed during the experiment were recorded. The tumor volume was calculated according to the following formula: tumor volume (mm3)=½×(a×b2) (wherein a represented the long diameter, and b represented the short diameter).

[19] = system: human PDL1-positive gastric cancer LD1-0017-200636 PDX; test: Anti-tumor effect, LD1-0017-200636 PDX xenograft; assay type: in vivo, NU/NU mice; conditions: 10 mg/kg, once a week for three doses, day 21
Procedure: as §1, with “gastric” for “cervical”, “LD1-0017-200636” for “LD1-0010-200614”, “NU/NU” for “Balb/c nude”, “30-60” for “25-35”, “138.70” for “146.74”

B1: MAB20-LP62 (DAR8): antibody-drug conjugate formed by conjugation of anti-PDL1 antibody MAB20 to linker-toxin LP62, n=8 (conjugate)
heavy: EVQLVQSGGGLVKPGGSLRLSCAASGFTFSSYTMNWVRQAPGKGLEWVSSISSGSDYLYYADSVKGRFTISRDNAKNSLYLQMNSLRAEDTAVYYCARNELRWYPQAGAFDRWGQGTMVTVSSASTKGPSVFPLAPSSKSTSGGTAALGCLVKDYFPEPVTVSWNSGALTSGVHTFPAVLQSSGLYSLSSVVTVPSSSLGTQTYICNVNHKPSNTKVDKKV[human IgG1 Fc with changes not shown]
light: QSVVTQPPSMSAAPGQRVTISCSGSSSYIESSYVGWYQQLPGTAPRLLIYDDDMRPSGIPDRFSGSKSGTSATLAITGLQTGDEADYYCEIWRSGLGGVFGGGTKLTVLSQPKAAPSVTLFPPSSEELQANKATLVCLISDFYPGAVTVAWKADSSPVKAGVETTTPSKQSNNKYAASSYLSLTPEQWKSHKSYSCQVTHEGSTVERTVALTEC
- TGI [1]: 109.33%
- cell killing effect [2]: stronger cell killing effects
- TGI [3]: 92.02%
- cytotoxicity to dendritic cells [4]: did not show significant cytotoxicity
- cytotoxicity to macrophages [5]: did not show significant cytotoxicity
- TGI [6]: 102.31%
- tumor growth inhibition rate (TGI) ([7]; 3 mg/kg): 80.33%
- tumor growth inhibition rate (TGI) ([7]; 8 mg/kg): 92.91%
- affinity compared with unconjugated antibody MAB20 [8]: comparable
- affinity for PDL1-positive cells [8]: better affinity
- binding [9]: weak specific binding
- TGI [10]: 40.9%
- incubation time at which the proportion of internalization reached the peak [11]: 4 h
- internalization ([11]; NCI-H292, compared with IgG1 isotype control): can effectively bind the PDL1 antigen on the cell surface and be internalized into the intracellular lysosomal pathway
- TGI [12]: 101.59%
- bystander effect [13]: significant bystander effect
- cell killing effect [14]: stronger cell killing effects
- TGI ([15]; 3 mg/kg): 75.24%
- TGI ([15]; 10 mg/kg): 89.51%
- cell killing effect [16]: stronger cell killing effects
- affinity for PDL1-positive cells [17]: better affinity
- TGI ([18]; 3 mg/kg): 43.23%
- TGI ([18]; 8 mg/kg): 106.85%
- TGI [19]: 108.18%

B2: MAB20: anti-PDL1 antibody, heavy chain SEQ ID NO: 9, light chain SEQ ID NO: 10 (antibody)
heavy: EVQLVQSGGGLVKPGGSLRLSCAASGFTFSSYTMNWVRQAPGKGLEWVSSISSGSDYLYYADSVKGRFTISRDNAKNSLYLQMNSLRAEDTAVYYCARNELRWYPQAGAFDRWGQGTMVTVSSASTKGPSVFPLAPSSKSTSGGTAALGCLVKDYFPEPVTVSWNSGALTSGVHTFPAVLQSSGLYSLSSVVTVPSSSLGTQTYICNVNHKPSNTKVDKKV[human IgG1 Fc with changes not shown]
light: B1 light
modifications: MAB20 HC; MAB20 LC
- TGI [1]: 67.38%
- tumor growth inhibition rate (TGI) ([7]; 8 mg/kg): 21.26%
- incubation time at which the proportion of internalization reached the peak [11]: 4 h
- TGI [12]: 50.27%
- TGI ([15]; 10 mg/kg): 30.3%
- TGI [19]: 14.89%
